Test results as given in the supplement of paper PMC10681739.
± gives the standard deviation of the averaged measurements. In all, about 4,100 sequences were measured (“arbitrary fluorescence units”: median about 780, highest 2% from about 22,000 on). The list shows a part of the results.

molecular target: T1, ETS1 (UniProt P14921); experiment: ETS1 binding intensity (PBM fluorescence), ETS1 alone (arbitrary fluorescence units); higher = stronger binding; settings: ETS1 concentration 1 nM; RUNX1 concentration 0 nM
T1 sequence: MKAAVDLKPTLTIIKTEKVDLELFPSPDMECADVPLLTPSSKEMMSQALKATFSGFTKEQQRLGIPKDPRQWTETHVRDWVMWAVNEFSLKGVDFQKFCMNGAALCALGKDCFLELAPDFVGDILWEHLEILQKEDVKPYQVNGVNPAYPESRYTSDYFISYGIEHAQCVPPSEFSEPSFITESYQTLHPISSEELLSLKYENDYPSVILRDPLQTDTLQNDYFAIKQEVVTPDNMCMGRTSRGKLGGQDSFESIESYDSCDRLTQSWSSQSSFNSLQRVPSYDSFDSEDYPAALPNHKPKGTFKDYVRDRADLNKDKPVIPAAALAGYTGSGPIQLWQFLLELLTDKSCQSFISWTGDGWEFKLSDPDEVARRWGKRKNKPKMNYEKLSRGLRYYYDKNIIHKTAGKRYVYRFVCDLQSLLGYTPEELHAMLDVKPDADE
Outline: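 Double-stranded Agilent 4 × 180k arrays held 36-bp genomic probes whose RUNX1 partner site was mutated, and these were incubated with 1 nM full-length recombinant human ETS1 in the absence of RUNX1 under standard PBM protocols. Bound protein was labelled with anti-ETS1 antibody (Cell Signaling Technology 14069) plus an Alexa488-conjugated secondary and read on a GenePix 4400A, with four spots printed per sequence. Binding level is reported as raw spot fluorescence intensity summarised over replicate spots.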

Sequence | ETS1 binding intensity
AAGGTGGCGGCTCACAGAGGCCGGACGTCCTCCGGG | 469
GTCTGAGGTACCTCGCCACGCCCCCGCCCTTCCGGT | 980
GTTGCCTTTCTGAGGTGGAGGAGGAAGTGTTGGATT | 576
GCCGGGAATGCGAGCTCTCCTGCCGGAAGCTGCCCC | 862
GGGGGCAGGAAGCAGTGCAGCTCCTTAACTCACTTC | 1950
AACAACAGGATGCTCTCTAGTCTAACAGTGGCAACA | 2640
TGGCCATGGACAGCGAAGGCTTCCTCTACTGCCGCT | 406
TCAATGACAGGAAGTTTTTAAATCACATACGGCTAA | 2370
GTCTTTCACTCCACTTCCGCCCCCACGAAACATACA | 11100
GCGCAGAAAGCTGCAGTCCCTCTGCGGAAGGCGCCG | 327
AGGCAAACTACAGGAAGATCCTGCCCGAAACTTGGT | 603
TCCCCTCTCCCCATCCGCCCGAGACAACAGCCACTC | 1080
ACTGCTCAAACCCCAAACGATAGCAGGAAAGGCCTG | 376
TGTTTGTTTCCGAAGATTAGCCAGCCTGCAGTAGAG | 562
AACAGTACTTCCGGGGCAAGTGAGCGCCTACAAGGC | 30400
GTGGGAGCGGAAGCCTGAGCGGCCTACGGCCTCCGG | 1420 ± 98
TTGCCATTCCAGGAAATGAGCTTACGACATTGACTG | 1610
ACAAGGAGGAAAAGGAAATGAACCATGAATAGCAAA | 1810
AGTTGCTAAGGAAATGACTGCCTGCAGCGCCTGGCC | 610
GCGGGCTATCCGGTCCTCGGCTGCAGCGGGCACCAT | 2430
GCTTTTGGCGGCTGCGCGGGCTTCCTGGAGTCCTGC | 684
CTGCTTTGCCTGCAGCGCTCCGGAACACCCGGCTAC | 333
AGACCCGGACCGGAACCTTGGCGCGGCGACGCTAGT | 1170
TTCTTAGCAGAGGAAGCTGTTTGGGGGGAAAAAGGG | 673
GATTTCATGTTTGGGGTTTAACTTCCGTAGCTTGGG | 889
CTAGCAGCTTCCGAGGGGGCGGCGGCCGGAGCGAGT | 784
AGCCAGGAAATCCGCACCTACACAGCCCAACCCCAG | 1760

Sequence | ETS1 binding intensity
CTGGTGCTCACAGGACAAATGTCATCCTGTATGTAT | 589
CCCACCCGGAAATGAGCCAACAGTGCTTTCGCCCCG | 5510
CGGGCAGACTACGGCCCTGGACGGGAAGCGGCGGCC | 377
CACTTCCTGCCCTCTTCCACTTTCAAAATCACATCA | 31900
ATGGCAACCCCAGTCTGTAACCGACACCGGAAGCGA | 2390
GTATTTATTTCCTCTTCGAAGAAATTCGGGGGTGCC | 3780
CTGGGCTTCCTCTTCAGGCATGCGCCGTGGACCTGC | 1680
TCCCCCTTCCCTCAGCTCCTCTTCCGCGTCCTCCCC | 511
TGGGGGACGGGACCTCGGGAACCCGGAAACGCCTGG | 1220
TGGAACAGCGACAGGAGACTCGCGTGTTCCGGGGAG | 327
TTGAGCGCAGGAACTCAACCTCCCCCGGAACTCAAC | 379
GGGAGGAGGAAGGGGCTGTGTCTGGGAGTTGGGGGC | 788
CTGTTGTAGTTGCTGCGACAATGCTCCAGGAAGGGT | 475
GAAGGGAGGAAGCCTGAGAACTGTTGTCTCCTGAAG | 424
TTCGCTCCCTGAATCGCGTCGCTTCCTGAGCCGCGC | 454
ACAGGAAGTGTCTCTATAGAAACCAAATCACAGAAA | 1770
GGGGAAGAGGAAGCTGTGTCCACGGTGCAAGGGGTT | 844
CCTTGCTTTCCGGGGACTGCCTGGGACAACCTCGCA | 1540
GGGCTTCAGCGGATGAACAAGGTTATCACGGGGAGT | 485
AGCCAGGAAATCCGCGCCTACACAGCCCAACCCCAG | 913
TTCTCTGATTTTCCTTCCGCTCCCACGGCCTCTCCC | 1360
CGGCGCTCCCACCGTGAGCCGACGGGAAATGGAGTC | 460
GTGTCCACTGCCTAGTTACTGCCAGCGGAAGGAAGG | 407
CTGTCAGCCCCTCAGCCCCTGCTTCCTGGCTGGCTG | 629
GCGAGACGCGGAAGAGGCTTGGGGTTGACCAAAGAA | 424
TGCTGCACCCCAGCCCCTTTCTCTTCCGGTTCTAGG | 1850
CTCCCCCAGCACATCCTCTGCCACTGCTGCCTTTCC | 1720

Sequence | ETS1 binding intensity
AGGGAACAGGAAATGCAAAAAACTACAAGGGACAAG | 13000
AAGGCACCAGCCACTTCGGAGGAAACGGGGGGTGGT | 514
CTGCACAGCTGTCGTTGTGTAACTTCCCCCAGATGC | 356
TGTTGTAGTTCCCGAGCTTCGTCCACGCCGGATCTG | 342
CGAAGAGGAAGCCCCTGTATCACCCCAAAAGAAGCC | 612
CTACCTCTACCTCCGCCGCCGCCTACATCCCGTAAA | 612
GGCAGGCACCTCAGAAGCCGGGCTTCCGTCTGACTG | 497
CCCCGCCGCTGTTCCCCCTGACCGGCTTTCCGCTGG | 394
GAGGACTTCCGGGTGCGTGTGATATCTACGGGCCCG | 18900
CGAGCCGCCTTCCTCCCCGGCCCTCAGCCCAGCACT | 475
TGGTGCCAAACATCCGCTAGCCAGAGAAAAACCGAC | 6500
GGGCAATGTGATTTGCCAGACGTTAGCGTCCGGGAG | 321
GTCCTCTTCCTGTCCCCCAGGTGGGCATGTGATTTG | 6800
CAGCCGGCACCGTGGACAGCCGCCGCTTCCGGTTTC | 5160
GCCCAGGCTGCGCGATGGGGTCATTTCCTGCCGCCT | 1820
GGCCAACCAAAAAGCACTGGCAGGAAGTGGGGCAAC | 2530
TCTACCCTTCCTGCTCTGGCCTGGGCTGGGGTAGCT | 2140
CTGCTTGGGGTTTTGGTCTGCAGGAAGCTGGGCTGC | 528
AAAGAACTTCCTGAGGTGCTTGGGGTTAGGCTATGG | 4310
GCGGCTCTGGGAGGGAGCAGAAGGAAGGGAAGGAAG | 406
ACCCCGCCCCCCCCAAACAACATCCCTTGGGTGTAA | 402
GCACCGTCCCAGCATCCGGACACCAGAGCGGCCCTT | 3900
GACTGAGATTTCCTGCCAGCAACTACATGGCTTGTC | 7080
CAGCTAGCCGGAAGAAGCTGCAGCGACAGCGTCCTG | 2620
GTGCCTGACCCCAAACCAACATTTCCTGTCTCAATT | 4950
TTTACGGGATGTAGGCGGCGGCGGAGGTAGAGGTAG | 681
